From paper PMC3234288 come the findings set out here.

The chains behind the UniProt entries cited, without tags or fusion partners. Residues count along the entry.
UniProt Q9UBV2, residues 22-794: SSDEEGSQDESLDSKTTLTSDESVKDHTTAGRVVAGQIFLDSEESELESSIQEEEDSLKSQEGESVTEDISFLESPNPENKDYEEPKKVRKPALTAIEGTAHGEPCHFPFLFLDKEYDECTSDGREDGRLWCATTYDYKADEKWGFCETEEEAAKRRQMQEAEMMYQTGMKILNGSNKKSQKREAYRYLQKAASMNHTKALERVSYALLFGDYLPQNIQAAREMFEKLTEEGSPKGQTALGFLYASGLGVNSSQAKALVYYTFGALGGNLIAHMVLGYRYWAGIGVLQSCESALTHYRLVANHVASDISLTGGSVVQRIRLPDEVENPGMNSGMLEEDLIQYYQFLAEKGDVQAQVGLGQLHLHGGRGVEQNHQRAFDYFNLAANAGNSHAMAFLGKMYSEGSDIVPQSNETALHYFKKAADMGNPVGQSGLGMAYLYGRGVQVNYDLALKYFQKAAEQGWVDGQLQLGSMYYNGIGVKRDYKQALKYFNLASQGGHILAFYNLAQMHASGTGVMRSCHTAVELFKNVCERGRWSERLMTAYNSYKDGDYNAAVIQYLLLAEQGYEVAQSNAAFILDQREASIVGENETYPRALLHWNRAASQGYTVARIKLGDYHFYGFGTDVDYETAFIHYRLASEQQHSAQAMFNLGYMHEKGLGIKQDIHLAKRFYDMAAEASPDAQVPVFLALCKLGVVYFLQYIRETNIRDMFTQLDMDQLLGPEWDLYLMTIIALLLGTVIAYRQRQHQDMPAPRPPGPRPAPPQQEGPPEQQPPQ
UniProt P46379: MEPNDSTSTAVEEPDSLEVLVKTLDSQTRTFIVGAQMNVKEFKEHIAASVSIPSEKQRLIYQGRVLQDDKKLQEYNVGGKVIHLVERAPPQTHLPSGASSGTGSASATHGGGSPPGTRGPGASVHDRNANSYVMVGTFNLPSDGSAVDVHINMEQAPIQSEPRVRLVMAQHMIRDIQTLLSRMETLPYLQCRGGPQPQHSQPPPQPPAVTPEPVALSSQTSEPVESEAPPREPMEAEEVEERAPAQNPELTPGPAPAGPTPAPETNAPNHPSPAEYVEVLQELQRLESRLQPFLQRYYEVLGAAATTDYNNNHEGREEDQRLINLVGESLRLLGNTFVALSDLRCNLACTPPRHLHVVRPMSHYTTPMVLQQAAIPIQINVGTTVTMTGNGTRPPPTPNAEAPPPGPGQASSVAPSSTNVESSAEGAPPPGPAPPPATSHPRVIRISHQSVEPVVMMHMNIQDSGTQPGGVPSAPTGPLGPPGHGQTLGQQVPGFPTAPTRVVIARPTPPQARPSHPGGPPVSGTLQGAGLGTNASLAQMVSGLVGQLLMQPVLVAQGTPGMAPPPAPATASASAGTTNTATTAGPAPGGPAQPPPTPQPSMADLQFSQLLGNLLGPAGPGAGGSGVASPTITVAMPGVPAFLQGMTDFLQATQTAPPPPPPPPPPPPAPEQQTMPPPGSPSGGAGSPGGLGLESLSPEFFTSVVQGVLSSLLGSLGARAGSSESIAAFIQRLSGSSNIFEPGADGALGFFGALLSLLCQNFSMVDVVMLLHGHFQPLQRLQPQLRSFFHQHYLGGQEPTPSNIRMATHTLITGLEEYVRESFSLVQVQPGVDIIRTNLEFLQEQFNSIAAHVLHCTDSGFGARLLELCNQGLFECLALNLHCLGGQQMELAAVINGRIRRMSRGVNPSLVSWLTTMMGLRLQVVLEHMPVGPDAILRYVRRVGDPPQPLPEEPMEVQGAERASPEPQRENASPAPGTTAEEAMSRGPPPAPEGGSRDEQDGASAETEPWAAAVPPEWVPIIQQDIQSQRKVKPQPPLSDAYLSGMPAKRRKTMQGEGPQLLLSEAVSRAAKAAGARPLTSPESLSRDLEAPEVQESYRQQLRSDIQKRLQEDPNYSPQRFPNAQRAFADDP

Assay [1] addresses T1, Derlin2-GFP fusion protein (UniProt Q9GZP9).
T1 sequence: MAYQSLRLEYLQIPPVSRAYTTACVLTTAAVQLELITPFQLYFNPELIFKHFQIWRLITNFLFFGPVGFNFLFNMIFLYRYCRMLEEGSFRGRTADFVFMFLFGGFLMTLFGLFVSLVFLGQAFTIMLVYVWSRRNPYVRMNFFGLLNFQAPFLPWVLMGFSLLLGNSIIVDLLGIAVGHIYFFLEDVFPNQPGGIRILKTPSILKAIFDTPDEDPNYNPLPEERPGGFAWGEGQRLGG
Nature of the assay: co-IP; 293T cells transiently transfected with Derlin2 or Derlin2-GFP, NP40 lysis, immunoprecipitation for Derlin2, blot for BAT3.

The target of the next assay is T2, Derlin2, overexpressed (UniProt Q9GZP9).
T2 sequence: T1 sequence
Described as above.

For assay [2], the target named is T3, Derlin2, endogenous in 293T cells (human (endogenous in 293T)) (UniProt Q9GZP9).
T3 sequence: T1 sequence
Nature of the assay: co-IP; untransfected 293T cells, NP40 lysis (0.5% NP40, 10 mM Tris-HCl, 150 mM NaCl, 5 mM MgCl2, pH 7.4), immunoprecipitation of endogenous proteins on protein A, 3 h at 4°C; pre-immune serum as control; blot for BAT3.

The target of assay [3] is SEL1L, endogenous in 293T cells (human (endogenous in 293T)) (UniProt Q9UBV2). Described as above.
Assay [4] deals with T4, Derlin1, endogenous in 293T cells (human (endogenous in 293T)) (UniProt Q9BUN8).
T4 sequence: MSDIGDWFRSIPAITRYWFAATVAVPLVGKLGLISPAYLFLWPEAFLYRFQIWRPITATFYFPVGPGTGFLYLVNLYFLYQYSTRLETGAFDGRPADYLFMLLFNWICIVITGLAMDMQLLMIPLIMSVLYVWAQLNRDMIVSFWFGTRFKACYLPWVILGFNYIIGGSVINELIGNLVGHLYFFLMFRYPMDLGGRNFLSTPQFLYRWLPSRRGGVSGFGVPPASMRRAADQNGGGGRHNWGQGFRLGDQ
Described as above.

Results are given in words; binding and its absence hold for the method and conditions named. In cells and extracts the contact can be indirect. Some results given as binding are weak or reduced against the parent protein; the word gives no strength. For some assays here: Tags and fused reporters may be left off the sequences shown.

In the case of “BAT3 (BAG6/Scythe), endogenous in 293T cells (from UniProt P46379 1-1132)”, the binding entry is reported as “binds” in assay [1]; “binds” with Derlin2, overexpressed; “binds” in assay [2]; “no binding” in assay [3]; “no binding” in assay [4].
